Patent US6153429A (priority 1997, dated 2000)

Test system: T1 and C3H/10T1/2 cells
Assay: toxicity to cells in T1 / C3H/10T1/2 co-cultures
Conditions: at all concentrations (0.5, 1.0, 5.0 or 10.0 μM)

`Cc1ccc2cc3c(ccc4ccccc43)c3c2c1CC3` [20-methylcholanthrene] was tested. Which “cells remaining on the plates” value (stock in tetrahydrofuran) did it give?
The value was “very few cells remained on the plates”.

And the toxicity to cells (may be due to peroxides contaminating tetrahydrofuran)?
The toxicity to cells was “very toxic to cells”.
